# Source: the supplement of paper PMC8728848
# Some of the results follow.
# B1: LecB LY19 (Pseudomonas aeruginosa) (protein)
# chain: MATQGVFTLPANTQFGVTAFANSAGTQTVNVQVNNETVATFTGQSTNNGIIGSKVLNSGGGGKVQILVSVNGRSSDLVSAQVILANELNFALVGSEDSTDNDYNDAVVVINWPLG
# Assays:
# Experiment in all cases: glycan array binding signal (z-score within array); higher = stronger binding
# Details in all cases: glycan notation: IUPAC condensed, linker removed
# [1] = target: Neu5Ac(a2-6)Gal(b1-4)GlcNAc(b1-6)[Gal(b1-3)]GalNAc
# Method in brief: (§1)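 Negative Z-scores can be read as non-binding. The Z-score is calculated within each array and then averaged across arrays of one protein sequence at different concentrations or buffers and across linkers. Arrays, 3228 in all, were curated from the Consortium for Functional Glycomics database and kept only where the protein sequence was available.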
# [2] = target: Neu5Ac(a2-6)Gal(b1-4)GlcNAc6S
# Method in brief: as §1
# [3] = target: Neu5Ac(a2-6)GalNAc
# Method in brief: as §1
# [4] = target: Neu5Ac(a2-6)GalNAc(b1-4)GlcNAc
# Method in brief: as §1
# [5] = target: Neu5Ac(a2-6)GalNAc(b1-4)GlcNAc6S
# Method in brief: as §1
# [6] = target: Neu5Ac(a2-6)GlcNAc(b1-4)GlcNAc
# Method in brief: as §1
# [7] = target: Neu5Ac(a2-6)GlcNAc(b1-4)GlcNAc(b1-4)GlcNAc
# Method in brief: as §1
# [8] = target: Neu5Ac(a2-8)Neu5Ac
# Method in brief: as §1
# [9] = target: Neu5Ac(a2-8)Neu5Ac(a2-3)Gal(b1-3)GalNAc(b1-4)[Neu5Ac(a2-3)]Gal(b1-4)Glc
# Method in brief: as §1
# [10] = target: Neu5Ac(a2-8)Neu5Ac(a2-3)Gal(b1-3)GalNAc(b1-4)[Neu5Ac(a2-8)Neu5Ac(a2-3)]Gal(b1-4)Glc
# Method in brief: as §1
# [11] = target: Neu5Ac(a2-8)Neu5Ac(a2-3)Gal(b1-4)Glc
# Method in brief: as §1
# [12] = target: Neu5Ac(a2-8)Neu5Ac(a2-3)Gal(b1-4)GlcNAc
# Method in brief: as §1
# [13] = target: Neu5Ac(a2-8)Neu5Ac(a2-3)[Gal(b1-3)GalNAc(b1-4)]Gal(b1-4)Glc
# Method in brief: as §1
# [14] = target: Neu5Ac(a2-8)Neu5Ac(a2-3)[GalNAc(b1-4)]Gal(b1-4)Glc
# Method in brief: as §1
# [15] = target: Neu5Ac(a2-8)Neu5Ac(a2-8)Neu5Ac
# Method in brief: as §1
# [16] = target: Neu5Ac(a2-8)Neu5Ac(a2-8)Neu5Ac(a2-3)Gal(b1-4)Glc
# Method in brief: as §1
# [17] = target: Neu5Ac(a2-8)Neu5Ac(a2-8)Neu5Ac(a2-3)[Gal(b1-3)GalNAc(b1-4)]Gal(b1-4)Glc
# Method in brief: as §1
# [18] = target: Neu5Ac(a2-8)Neu5Ac(a2-8)Neu5Ac(a2-3)[GalNAc(b1-4)]Gal(b1-4)Glc
# Method in brief: as §1
# [19] = target: Neu5Ac(a2-8)Neu5Ac(a2-8)Neu5Ac(a2-8)Neu5Ac(a2-3)[GalNAc(b1-4)]Gal(b1-4)Glc
# Method in brief: as §1
# [20] = target: Neu5Ac(a2-8)Neu5Gc(a2-3)Gal(b1-4)GlcNAc
# Method in brief: as §1
# [21] = target: Neu5Ac(b2-6)Gal(b1-4)GlcNAc
# Method in brief: as §1
# [22] = target: Neu5Ac(b2-6)GalNAc
# Method in brief: as §1
# [23] = target: Neu5Ac9Ac(a2-3)Gal(b1-3)GlcNAc
# Method in brief: as §1
# [24] = target: Neu5Ac9Ac(a2-3)Gal(b1-4)GlcNAc
# Method in brief: as §1
# [25] = target: Neu5Ac9Ac(a2-6)Gal(b1-4)GlcNAc
# Method in brief: as §1
# [26] = target: Neu5Gc(a2-3)Gal(b1-3)GlcNAc
# Method in brief: as §1
# [27] = target: Neu5Gc(a2-3)Gal(b1-3)[Fuc(a1-4)]GlcNAc
# Method in brief: as §1
# [28] = target: Neu5Gc(a2-3)Gal(b1-4)Glc
# Method in brief: as §1
# [29] = target: Neu5Gc(a2-3)Gal(b1-4)GlcNAc
# Method in brief: as §1
# [30] = target: Neu5Gc(a2-3)Gal(b1-4)GlcNAc(b1-3)Gal(b1-4)GlcNAc(b1-2)Man(a1-3)[Neu5Gc(a2-3)Gal(b1-4)GlcNAc(b1-3)Gal(b1-4)GlcNAc(b1-2)Man(a1-6)]Man(b1-4)GlcNAc(b1-4)GlcNAc
# Method in brief: as §1
# [31] = target: Neu5Gc(a2-3)Gal(b1-4)[Fuc(a1-3)]GlcNAc
# Method in brief: as §1
# [32] = target: Neu5Gc(a2-6)Gal(b1-4)GlcNAc
# Method in brief: as §1
# [33] = target: Neu5Gc(a2-6)GalNAc
# Method in brief: as §1
# [34] = target: Neu5Gc(a2-8)Neu5Ac(a2-3)Gal(b1-4)GlcNAc
# Method in brief: as §1
# [35] = target: Neu5Gc(a2-8)Neu5Gc(a2-3)Gal(b1-4)GlcNAc
# Method in brief: as §1
# [36] = target: Neu5Gc(a2-8)Neu5Gc(a2-3)Gal(b1-4)GlcNAc(b1-3)Gal(b1-4)GlcNAc
# Method in brief: as §1
# [37] = target: Neu5Gc(a2-8)Neu5Gc(a2-6)Gal(b1-4)GlcNAc
# Method in brief: as §1
# [38] = target: Neu5Gc(b2-6)Gal(b1-4)GlcNAc
# Method in brief: as §1
binder,measurement,setting,value
B1,glycan array binding signal (z-score),[1],-0.545
same,glycan array binding signal (z-score),[2],-0.548
same,glycan array binding signal (z-score),[3],-0.553
same,glycan array binding signal (z-score),[4],-0.55
same,glycan array binding signal (z-score),[5],-0.384
same,glycan array binding signal (z-score),[6],-0.542
same,glycan array binding signal (z-score),[7],-0.436
same,glycan array binding signal (z-score),[8],-0.55
same,glycan array binding signal (z-score),[9],-0.554
same,glycan array binding signal (z-score),[10],-0.551
same,glycan array binding signal (z-score),[11],-0.547
same,glycan array binding signal (z-score),[12],-0.557
same,glycan array binding signal (z-score),[13],-0.551
same,glycan array binding signal (z-score),[14],-0.537
same,glycan array binding signal (z-score),[15],-0.555
same,glycan array binding signal (z-score),[16],-0.551
same,glycan array binding signal (z-score),[17],-0.549
same,glycan array binding signal (z-score),[18],-0.546
same,glycan array binding signal (z-score),[19],-0.551
same,glycan array binding signal (z-score),[20],-0.555
same,glycan array binding signal (z-score),[21],-0.528
same,glycan array binding signal (z-score),[22],-0.563
same,glycan array binding signal (z-score),[23],-0.555
same,glycan array binding signal (z-score),[24],-0.553
same,glycan array binding signal (z-score),[25],-0.526
same,glycan array binding signal (z-score),[26],-0.509
same,glycan array binding signal (z-score),[27],-0.353
same,glycan array binding signal (z-score),[28],-0.511
same,glycan array binding signal (z-score),[29],-0.537
same,glycan array binding signal (z-score),[30],-0.506
same,glycan array binding signal (z-score),[31],0.661
same,glycan array binding signal (z-score),[32],-0.551
same,glycan array binding signal (z-score),[33],-0.552
same,glycan array binding signal (z-score),[34],-0.554
same,glycan array binding signal (z-score),[35],-0.553
same,glycan array binding signal (z-score),[36],-0.556
same,glycan array binding signal (z-score),[37],-0.541
same,glycan array binding signal (z-score),[38],-0.556
